Results published in PubChem BioAssay AID1347120 (National Center for Advancing Translational Sciences (NCATS), 2019).
Among all 390,000 compounds or so, about 930 (0.24%) were called active. Entries that show only a call come without a potency. Inconclusive means that the source gave no clear call. Such entries were picked first, then a sample of the others. Calls follow the shape of the dose curve; as a rule, active = well fitted activation curve with a large enough effect; inconclusive = small, poorly fitted or top-dose-only effect; inactive = no such curve, though single readings can be large or run the other way. Potencies of inconclusive entries are doubtful fits and often do not repeat.

Assay: qHTS for Suppressors of FUS Proteinopathy: Primary screen using FUS-linked yeast assay; also: nearly all actives have a fitted effect of over 55% in size
Settings: S. cerevisiae FUS-expressing, OD600, 24 h; Potency: growth rescue; series mostly up to 76.6 µM
In short: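 Steps: raffinose overnight preculture; dilution to OD 0.005 in 2% galactose minimal medium; compound addition (concentration series); 24hr at 30C, 99% humidity; absorbance read at 600 nm.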
Potency is read from the fitted curve at half-maximal effect; tags tell the direction and shape of the fitted curve.

SMILES	Potency
Cc1ccccc1N1CC(C(=O)Nc2nnc(SCc3cccnc3)s2)CC1=O (stereo not drawn)	inconclusive: 15.8 µM [activator, partial curve, poor fit]
N#Cc1ccc(OCC(=O)N/N=C2\CCc3ccccc32)cc1	inactive
CCOc1ccccc1-c1noc(CSc2nnc(-c3ccncc3)n2-c2ccc(F)cc2)n1	inactive
CNc1nc(N/N=C/c2cc3c(cc2[N+](=O)[O-])OCO3)nc(Nc2ccccc2)n1	inconclusive: 28.2 µM [activator, partial curve]
CC(=O)c1cccc(NC(=O)c2ccc([N+](=O)[O-])o2)c1	inactive
COC(=O)c1ccc(C2c3c(-c4ccc(Br)cc4)n[nH]c3C(=O)N2c2ccc(Cl)cc2)cc1 (stereo not drawn)	inconclusive: 39.8 µM [activator, single point]
C[C@@H]1CN([C@@H](C)CO)C(=O)c2cccc(NS(C)(=O)=O)c2O[C@H]1CN(C)Cc1ccc(Oc2ccccc2)cc1	inconclusive: 12.6 µM [activator, partial curve]
CCNc1nc(NCC)nc(OCCOC(=O)c2ccccc2)n1	inactive
CCc1nc(C)cn1S(=O)(=O)c1ccc([N+](=O)[O-])cc1	inactive
C[C@@H]1CN([C@@H](C)CO)S(=O)(=O)c2ccc(C#Cc3cccc(F)c3)cc2O[C@H]1CN(C)S(=O)(=O)c1cn(C)cn1	inconclusive: 25.1 µM [activator, single point]
Cc1cc(Nc2ccccc2F)n2nc(Cc3ccc(Cl)cc3)nc2n1	inactive
Cc1ccc(NC(=O)CSc2nnc3ccccn23)cc1	inactive
CCn1ccc2cc(S(=O)(=O)N3CCCN(C(=O)Nc4ccc(C)cc4Cl)CC3)ccc21	inconclusive: 12.6 µM [activator, partial curve, poor fit]
C[C@H](CO)N1C[C@H](C)[C@@H](CN(C)C(=O)c2ccc3c(c2)OCO3)Oc2cc(/C=C/c3ccccc3)ccc2S1(=O)=O	inconclusive: 20 µM [activator, partial curve, poor fit]
CC(C)(C)C(=O)Nc1ccc(N2CCCC2)cc1	inconclusive: 20 µM [activator, partial curve, poor fit]
COCC(=O)Nc1nc2n(n1)C(c1ccc(Cl)cc1)CC(c1ccc(OC)cc1)N2 (stereo not drawn)	inconclusive: 31.6 µM [activator, single point]
COc1cc(-c2cc(C(=O)Nc3ccc(S(N)(=O)=O)cc3)c3ccccc3n2)cc(OC)c1OC	inactive
CC(C)Cc1nn2c(=O)cc(COC(=O)c3cccc(NC(=O)c4cccs4)c3)nc2s1	inactive
